Experimental data: publication PMC2694982
Results are given in words; binding and its absence hold for the method and conditions named. For some assays here: In cells and extracts the contact can be indirect. For some assays here: Where a sequence is shown, tags or fusion partners need not be part of it. Some entries that bind do so weakly or less than the wild type.

Protein sequences, listed by entry. Tags and fused reporters are not part of them. Residues count along the entry.
UniProt P20649, residues 837-949: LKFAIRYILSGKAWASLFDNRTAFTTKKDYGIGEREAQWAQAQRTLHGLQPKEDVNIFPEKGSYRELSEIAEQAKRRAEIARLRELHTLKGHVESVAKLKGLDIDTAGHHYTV

Legend:
[1] = biological target: T1, pGBKT7-RIN4 (Arabidopsis thaliana) (UniProt Q8GYN5); assay: two-hybrid; Matchmaker system, yeast AH109, beta-galactosidase (lacZ) reporter (unpublished data)
T1 sequence: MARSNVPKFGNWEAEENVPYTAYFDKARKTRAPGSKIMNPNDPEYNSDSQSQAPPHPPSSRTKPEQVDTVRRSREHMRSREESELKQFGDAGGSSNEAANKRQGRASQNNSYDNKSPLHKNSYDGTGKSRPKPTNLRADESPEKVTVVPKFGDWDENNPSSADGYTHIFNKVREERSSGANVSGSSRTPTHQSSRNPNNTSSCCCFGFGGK

[2] = biological target: T1, pGBKT7-RIN4 (Arabidopsis thaliana); assay: two-hybrid; Matchmaker system (Clontech), yeast AH109; RIN4 in pGBKT7 (BD), AHA fragments in pGADT7 (AD); growth on SD lacking leucine, tryptophan and histidine
[3] = biological target: T2, AUX1-cCFP (Arabidopsis thaliana) (UniProt Q96247); assay: split reporter; BiFC with nYFP and cCFP fusions transiently co-expressed in N. benthamiana leaves; YFP fluorescence by confocal microscopy 24-48 h after infiltration
T2 sequence: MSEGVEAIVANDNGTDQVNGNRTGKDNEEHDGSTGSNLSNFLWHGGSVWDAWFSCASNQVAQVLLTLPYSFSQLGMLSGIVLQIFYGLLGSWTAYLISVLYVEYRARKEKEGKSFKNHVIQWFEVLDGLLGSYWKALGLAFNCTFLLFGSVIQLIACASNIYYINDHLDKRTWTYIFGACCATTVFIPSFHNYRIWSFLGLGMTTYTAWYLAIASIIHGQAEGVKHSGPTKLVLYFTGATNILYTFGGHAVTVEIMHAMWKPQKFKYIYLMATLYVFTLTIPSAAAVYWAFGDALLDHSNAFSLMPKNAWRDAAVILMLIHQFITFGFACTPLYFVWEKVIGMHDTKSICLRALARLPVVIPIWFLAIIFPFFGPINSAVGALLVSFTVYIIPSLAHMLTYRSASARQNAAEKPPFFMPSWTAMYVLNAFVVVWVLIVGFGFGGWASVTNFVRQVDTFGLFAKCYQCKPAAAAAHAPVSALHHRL

Molecule: pGADT7-AHA1(837-950) (from UniProt P20649 837-949) (domain or fragment)
- binding [1]: binds weakly
- binding [2]: binds weakly

B1: pGADT7-AHA2(837-949) (domain or fragment, UniProt P19456 837-948)
chain: FKFAIRYILSGKAWLNLFENKTAFTMKKDYGKEEREAQWALAQRTLHGLQPKEAVNIFPEKGSYRELSEIAEQAKRRAEIARLRELHTLKGHVESVVKLKGLDIETPSHYTV
- binding [1]: binds weakly
- binding [2]: binds weakly

B2: RIN4 BiFC fusion (cCFP-RIN4 or nYFP-RIN4) (protein, UniProt Q8GYN5 1-211)
chain: T1 sequence
- binding [3]: no binding
